# Results reported in PubChem BioAssay AID686978 (National Center for Advancing Translational Sciences (NCATS), 2013).
# “And” between values parts separate entries of the source, which are not always exact repeats. Equal values may be shown once. Among all 420,000 compounds or so, about 64,000 (15%) were called active. Inconclusive means that the source gave no clear call. Such entries were picked first, then a sample of the others. Calls follow the shape of the dose curve; as a rule, active = well fitted inhibition curve with a large enough effect; inconclusive = small, poorly fitted or top-dose-only effect; inactive = flat fitted curve, though single readings scatter. Potencies of inconclusive entries are left out as doubtful fits.
# Assay: qHTS for Inhibitors of human tyrosyl-DNA phosphodiesterase 1 (TDP1): qHTS in cells in absence of CPT; also: nearly all actives have a fitted effect of over 55% in size
# Conditions: DT40 Tdp1-/- hTDP1 cells, no CPT, ATP luminescence, 48 h; activity change, negative = growth inhibition: at 46.2 µM (top of the series)
# Outline: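 Luminescent ATP content (CellTiter-Glo) served as the growth readout. Knockout chicken DT40 cells expressing human TDP1 were exposed to compounds without camptothecin for a minimum 48 hr at 37 °C.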
# % is scaled to controls: 0 for no effect and ±100 for the full control effect; potency is read from the fitted curve at half-maximal effect; tags tell the direction and shape of the fitted curve.
Structure (SMILES),Potency,"activity change, negative = growth inhibition"
CC(C)(C)Cc1nc2ccccc2n1CCc1ccccc1,"inconclusive [inhibitor, single point]",
C/C(=N\NC(=O)CN1CCN(S(=O)(=O)c2ccc(C)cc2)CC1)c1ccc(O)cc1,,inactive: 2.16%
Fc1ccccc1COc1ccc(Br)cc1CNCc1ccncc1,"inconclusive [inhibitor, single point]",
Cc1cc(/C=C(\C#N)C(=O)NCCc2c[nH]c3ccccc23)c(C)n1C,"inconclusive [inhibitor, single point]",
COc1ccc(S(N)(=O)=O)cc1C(=O)OCC(=O)N1CC(=O)Nc2ccccc21,,inactive: 0.0413%
O=C(COCc1cc(-c2ccco2)on1)Nc1cc(Cl)ccc1O,"inconclusive [inhibitor, single point]",
COc1ccc(CN2CCN(C(=O)c3ccccc3C(=O)c3ccccc3)CC2)cc1F,"inconclusive [inhibitor, single point]",
O=C(Cn1c(-c2cncs2)nc2ccccc21)NCCc1ccccc1,"inconclusive [inhibitor, single point]",
CC(=O)c1ccc(N2Cc3ccccc3/C2=N\C(=O)Nc2ccc(Cl)cc2)cc1,"inconclusive [inhibitor, single point]",
CC(=NNC(=O)c1cc(C)oc1C)c1ccc(Br)s1,"inconclusive [inhibitor, single point]",
Cc1ccc(NC(=O)CSc2nnc3ccccn23)cc1S(=O)(=O)N1CCOCC1,,inactive: -10.6%
COC(=O)[C@@]12C[C@@H](CC(=O)N3CCN(C(=O)C4CC4)CC3)C(=O)N(Cc3cccc4ccccc34)C1=CCC(C)(C)C2,active: 20.6 µM,
CCOC(=O)C1(Cc2cccc(OC)c2)CCCN(C(=O)CCN2CCCO2)C1 (centres undefined),,inactive: 2.66%
CN(C)C1=C(Cl)C(=O)N(c2ccc(Cl)c(Cl)c2)C1=O,"inconclusive [inhibitor, single point]",
Cc1cc2oc(=O)cc(CNc3ccccc3F)c2cc1O,"inconclusive [inhibitor, partial curve]",
O=C(Nc1ccc2oc(-c3cccnc3)nc2c1)c1ccccc1F,,inactive: -18.5%
CC(=O)Nc1coc2ccc(Br)cc12,"inconclusive [inhibitor, partial curve]",
CCCCCCCNC(=O)C1(CC2CC(c3cccc(Br)c3)=NO2)CCN(C(=O)c2cc(OCC)c(OCC)c(OCC)c2)CC1 (centres undefined),"inconclusive [inhibitor, partial curve, poor fit]",
CCN(CC(=O)NCc1ccc(Cl)cc1)C(=O)CSc1cc(C)ccc1C,"inconclusive [inhibitor, partial curve, poor fit]",
COc1cc(-c2ccc(C(F)(F)F)cn2)cc2c1OCCN(S(=O)(=O)C[C@]13CC[C@H](CC1=O)C3(C)C)C2,,inactive: -25.4%
CCOC(=O)N1CCC(=NNC(N)=O)C1,,inactive: -0.641%
CCC(C(=O)N1CCOCC1)n1nc(C)n2c(cc3cc(C)ccc32)c1=O (centres undefined),,inactive: -0.145%
COCCn1c(SCC(=O)Nc2ccccc2OC)nc2c(oc3ccccc32)c1=O,"inconclusive [inhibitor, partial curve, poor fit]",

Structure (SMILES),Potency,"activity change, negative = growth inhibition"
CN1C(=O)C(C)(C)N(C(=O)c2cccc([N+](=O)[O-])c2)c2ccccc21,,inactive: 0.123%
NC(=O)C1(N2CCCCC2)CCN(C(=O)CSc2nc3ccccc3s2)CC1,,inconclusive: -32.5% [inhibitor]
Cc1cccc(NC(=O)CCS(=O)(=O)c2cc3c(cc2Cl)NC(=O)CO3)c1,"inconclusive [inhibitor, single point]",
COc1ccc(CC(=O)N2CCc3c([nH]c4ccccc34)C2c2ccc(SC)cc2)cc1 (centres undefined),"inconclusive [inhibitor, partial curve]",
Cc1ccc2c(c1)[C@H]1[C@H](CO2)[C@H](c2ccccc2)[C@]2(C)C(=O)Nc3cc(F)ccc3C(=O)N12,"inconclusive [inhibitor, single point]",
CN(C)c1ccc(/C=C(\Cl)c2nc3ccccc3s2)cc1,active: 20.6 µM,
CC(=O)N1CCCc2cc(S(=O)(=O)Nc3ccc(Cl)cc3F)ccc21,active: 23.1 µM,
O=S(=O)(c1ccc(Br)cc1F)N1CCC(O)CC1,,inactive: -8.95%
COc1ccc(C(=O)Oc2c(C)occc2=O)cc1OC,,inactive: -3.16%
O=C(NCc1ccc2c(c1)OCO2)C12CN(Cc3ccccc3)CC1C(c1cccc([N+](=O)[O-])c1)=NO2 (centres undefined),"inconclusive [inhibitor, single point]",
COc1ccccc1NC(=O)CSc1nnc(Cn2nnc(-c3ccccc3)n2)n1-c1ccccc1,active: 20.6 µM,
COc1ccc(C2NN=C(c3ccc(C)cc3)S2)cc1 (centres undefined),"inconclusive [inhibitor, partial curve]",
COc1ccc2[nH]c3c(c2c1)CCN1C(=O)C(CC(=O)NCCc2ccccn2)C[C@H](C(=O)N(C(C)C)C(C)C)[C@@]31C (some centres undefined),"inconclusive [inhibitor, single point]",
CN(C)c1cccc(C(=O)OCc2cc(=O)oc3cc(O)ccc23)c1,"inconclusive [inhibitor, partial curve]",
Cc1ccc2c(Cl)c(C(=O)Nc3cccnc3)sc2c1,,inactive: 2.25%
CCN(CC)c1nc(Nc2ccc(Cl)cc2)nc(OCC#N)n1,"inconclusive [inhibitor, single point]",
COc1ccc(-c2nc3ccccc3s2)cc1NC(=O)c1cc(OC)c(OC)c(OC)c1,,inactive: -24.7%
N/C(CCN1CCCCC1)=N/O,,inactive: 1.4%
Cc1cc2c(c(=O)o1)C(c1ccc([N+](=O)[O-])o1)C(C#N)=C(N)O2 (centres undefined),"inconclusive [inhibitor, single point]",
CCCCOc1ccc(-c2c(C#N)c(N)nc(SCC(N)=O)c2C#N)cc1,"inconclusive [inhibitor, single point]",
COC(=O)Cc1ccc(OC2(C)CCN(Cc3ccc(-c4ccccn4)cc3)C2)cc1 (centres undefined),"inconclusive [inhibitor, single point]",
Cc1cccc(C)c1NC(=O)c1c(C)nn(-c2ccccc2)c1Cl,,inactive: -12.9%
O=C(NCCCN1CCN(c2cccc(Cl)c2)CC1)C1(S(=O)(=O)c2ccc(Cl)cc2)CC1,"inconclusive [inhibitor, single point]",

Structure (SMILES),Potency,"activity change, negative = growth inhibition"
Cc1cccc(-c2ccc(O)cc2CN2CCN(c3ncc(Cc4ccccc4)cn3)CC2)c1,active: 20.6 µM,
c1cc2c(cc1Cc1cncc(Cc3ccc4c(c3)OCO4)c1)OCO2,"inconclusive [inhibitor, single point]",
COc1ccccc1NC(=O)CSc1nnc(COc2ccc(Cl)cc2)n1Cc1ccco1,active: 14.6 µM,
CCCCN1CC[C@H]2C=CC[C@@H](C(=O)Nc3ccc(Cl)c(C(F)(F)F)c3)[C@H]2C1=O,active: 10 µM,
CCN(C(=O)c1cccs1)c1nc(-c2ccc(OC)cc2)cs1,"inconclusive [inhibitor, single point]",
Cc1ccc(OC(=O)c2cccc(S(=O)(=O)N3CCN(C)CC3)c2)c(Br)c1,,inactive: -1.72%
O=C1CCC(C(=O)N2CCCC(C(=O)c3ccc4c5c(cccc35)CC4)C2)=NN1 (centres undefined),"inconclusive [inhibitor, single point]",
Cc1ccc(NC(=O)CSCC(=O)N(C)CC(=O)Nc2ccccc2C(F)(F)F)cc1,,inactive: -2.17%
O=C(Nc1nc(-c2cccs2)c(-c2cccs2)s1)C1(c2ccccc2)CC1,"inconclusive [inhibitor, single point]",
COc1ccc(-c2c(-c3cc(OC)cc(OC)c3)n(C)c3ccc(-c4ccc(SC)cc4)cc23)cc1,,inactive: 7.45%
Cc1n[nH]c(=O)c2c(NC(=O)CSc3nc4ccccc4c(=O)n3CCCOC(C)C)oc(C)c12,"inconclusive [inhibitor, partial curve]",
CC(=O)Nc1ccccc1OCC(=O)NC(C)c1ccc(F)cc1 (centres undefined),"inconclusive [inhibitor, partial curve, poor fit]",
Cc1nnc(SCc2ccccc2)nc1-c1ccccc1,"inconclusive [inhibitor, single point]",
CC/C(=C(\c1ccccc1)c1ccc(OCCN(C)C)cc1)c1ccccc1,active: 20.6 µM and active: 15 µM and active: 18.4 µM,
C=C(c1ccccc1O)n1ccnc1,,inactive: -20.2%
CC12C=CC(=O)C=C1CCC1C2CCC2(C)C(C(=O)CO)CCC12 (centres undefined),"inconclusive [inhibitor, partial curve]",
CC(C)=C(NC(=O)c1ccccc1)C(=O)N/N=C(\C)c1ccccc1O,"inconclusive [inhibitor, single point]",
CCc1cccc(CC)c1N1C(=O)C2=C(SCCCS2)C1=O,"inconclusive [inhibitor, single point]",
O=C(Nc1cccc(F)c1)c1ccc(-c2cccnc2)c2ccoc12,"inconclusive [inhibitor, full curve]",
CCN1C=C(C(=O)OC)C(c2cccc(C)c2)C(C(=O)OC)=C1,,inconclusive: -28.5% [inhibitor]
O=c1c2ccccc2cnn1Cc1nnc(-c2cccs2)o1,"inconclusive [inhibitor, partial curve]",
Cc1ccc(C)c(C(=O)OCC(=O)NC(=O)NCc2ccccc2)c1,"inconclusive [inhibitor, single point]",
O=S1(=O)CC(N2CCCCC2)CN1Cc1cn(Cc2ccc(C(F)(F)F)cc2)nn1 (centres undefined),,inactive: -22.5%
